Measurements taken from PubChem BioAssay AID1508623 (National Center for Advancing Translational Sciences (NCATS), 2021).
In all, about 48,000 compounds went through this assay and about 450 (0.94%) were called active. Inconclusive results (about 19%) are left out. The call rests on the fitted dose curve; in most records, active means well fitted inhibition curve with a large enough effect; inconclusive means small, poorly fitted or top-dose-only effect; inactive means no such curve, though single readings can be large or run the other way. This is one part of the list.

test: Primary qHTS for Identification of Small Molecule Inhibitors of Huntingtin Promoter Activity; conditions: HEK293 HTT promoter firefly luciferase reporter (activity 0% = vehicle and -100% = no light), 24 h; series mostly up to 57.5 µM; activity change, negative = inhibition: at the top concentration; further: nearly all actives have a fitted effect of over 50% in size
Summary of the method: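 HEK293 Fluc reporter, 2,500 cells/well, 24 h pre-culture; cpds up to 57.5 uM final, 24 h 37 degrees C; Dual-Glo, 10 min RT; normalized vehicle = 0%, zero RLU = -100%.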

Activity change, negative = inhibition, inactive:
Cc1cccc(C(=O)N2c3ncnn3C3(CCCCC3)[C@@H]3CCCC[C@@H]32)c1 -35.6%
CCOC(=O)c1cccc(NS(=O)(=O)c2ccc(-c3coc(C)n3)cc2)c1 -21.1%
COc1cc2c(cc1NC(=O)COc1ccc(Br)cc1)oc1ccccc12 12% [at 11.5 µM]
COc1ccc(-c2cc(C(F)(F)F)n3ncc(-c4ccccc4)c3n2)cc1 -6.88%
COC(=O)c1ccc2c(=O)n(CCc3ccc(S(N)(=O)=O)cc3)c(SCC(=O)C(C)(C)C)nc2c1 -5.5%
Cc1ccc(S(=O)(=O)CC(=O)Nc2nc3c(C)cccc3s2)cc1 -18.3%
Cc1ccc(-c2c3c(=O)n(C)c(=O)n(C)c3c3cnc4ccccc4n23)cc1 -3.72%
Cc1ccc(N2CCN(Cc3nnc(-c4ccccc4F)o3)CC2)c(C)c1 -18.7%
CCOc1ccc(NC(=O)CCc2c(C)nc3nc(-c4cc(OC)cc(OC)c4)nn3c2C)cc1 -10.5%
CC(=O)N1CCc2cc(Br)cc(S(=O)(=O)NCCc3cccc(C)c3)c21 -7.1%
COc1ccc(-c2[nH]c3c(c2-c2c(-n4cccc4)n(C)c(=O)[nH]c2=O)c(=O)[nH]c(=O)n3C)cc1F -11.6%
COc1ccccc1Nc1nc(N)nc(N)c1S(=O)(=O)c1ccccc1 -1.73%
Cn1c(SCC(=O)Nc2nc3ccccc3s2)ncc(C(=O)Nc2ccc(Cl)cc2)c1=O 3.75%
COc1cccc(NC(=O)Cn2nnc(C(=O)NCc3ccc4c(c3)OCO4)c2N)c1 -1.85%
CCOCCCNC(=O)c1cn(CC(C)C)c(=O)c2c1c1ccccc1n2C -12.4%
CSc1ncc(Cl)c(C(=O)N(C)c2ccccc2)n1 -23.7%
CCN1CCN(c2ncc3c(n2)CCN(Cc2cccc(F)c2F)C3)CC1 -7.73%
COC(=O)c1ccccc1NC(=O)c1nn(C)c2c1COc1ccccc1-2 -13.1%
Cc1cccn2c(=O)c3cc(C#N)c(=O)n(-c4nnc(SCc5ccc(F)cc5)s4)c3nc12 -14.2%
CC(Oc1ccccc1)C(=O)Nc1c(C(=O)Nc2cccc(F)c2)oc2ccccc12 (stereo not drawn) -17.6%
CCc1ccc(S(=O)(=O)Nc2cc3c(cc2C)n(C)c(=O)c(=O)n3C)cc1 -20.7%
CCOC(=O)c1c(NC(=O)COc2ccc(Cl)cc2Cl)sc2c1CCCCC2 -1.49%
CN(C)c1ccc(CNC(=O)Cn2c(-c3cccs3)cc3cc(Cl)ccc32)cc1 -29.8%
COc1ccccc1NC(=O)N1CCN(c2nnc(C)c3c(C)n(-c4ccccc4)nc23)CC1 -11.7%
Nc1c(-c2nc(-c3ccccc3Cl)no2)nnn1-c1ccccc1C(F)(F)F 24.3%
O=c1c2oc3ccccc3c2n(Cc2ccccc2F)c(=O)n1Cc1ccc2c(c1)OCO2 1.08%
CCN(CC)S(=O)(=O)c1ccc(NC(=O)c2c(C)oc3ncnc(N4CCCCC4)c23)cc1 0%
CCN(CC)CCN(C(=O)c1ccco1)c1nc2ccc(F)cc2s1 -10.3%
Cc1ccc(-c2nnc(SCC(=O)NCc3ccccc3)o2)cc1 -7.39%
CCOc1ccc(CNS(=O)(=O)c2ccc3c(c2)CC(C)N3C(C)=O)cc1OC (stereo not drawn) -15.4%
COc1ccc(OC)c(CCNC(=O)CCCn2c(=O)c3cccn3c3cccnc32)c1 -0.383%
O=C(NCc1ccccc1)c1ccc(CS(=O)(=O)c2c(Cl)cccc2Cl)o1 -9.37%
COc1ccc(N2CCN(C(=O)CSc3nc(-c4ccccc4)no3)CC2)cc1 21%
COc1ccc(-c2n[nH]c3c2C(c2ccccn2)N(C)C3=O)cc1 (stereo not drawn) -4.63%
COc1ccc(-n2nc3c(N4CCC(C(=O)NC5CCCCC5)CC4)nnc(C)c3c2C)cc1 -2.74%
Cc1ccc2oc(=O)c3cnn(CC(=O)N4CCN(c5cccc(Cl)c5)CC4)c3c2c1 6.39%
CCOc1ccc(OCC)c(NC(=O)CN(C)S(=O)(=O)c2ccc3[nH]c(=O)oc3c2)c1 -14.4%
Cc1cccc(C(=O)Nc2ccc3nc(SCC(=O)N4CCCC4)sc3c2)c1 -15.7%
Cc1cc(C(=O)NCCc2ccc(Cl)cc2)c2c(C)nn(-c3ccccc3)c2n1 1.38%
COc1cc(CNC(=O)c2ccc(NC(=O)N3CCCCc4ccccc43)cc2)cc(OC)c1OC -23.6%
CC(=O)[C@@]1(O)CC[C@H]2[C@@H]3CCC4=CC(=O)CC[C@]4(C)[C@H]3CC[C@@]21C -3.67%
CC(=O)c1cccc(NC(=O)CCn2nc(C)c(S(=O)(=O)N3CCCCC3)c2C)c1 -25.6%
O=C(c1cccs1)N1CCCc2cc(NS(=O)(=O)c3cc(F)ccc3F)ccc21 -35.9%
CCc1ccccc1NC(=O)C1CCCN(S(=O)(=O)c2ccc3[nH]c(=O)ccc3c2)C1 (stereo not drawn) -14%
Cc1ccc(OCC(=O)NCC(=O)OCc2cc(=O)n3nc(CC(C)C)sc3n2)cc1 -6.43%
O=C(NCCc1ccc(Cl)cc1)c1cnc2sc(N3CCCC3)nn2c1=O -22.7%
CC(=O)c1ccc(NC(=O)C2CCN(S(=O)(=O)c3c(C)noc3/C=C/c3ccc(C)cc3)CC2)cc1 -21%
COc1ccc(CNC(=O)CN2C(=O)COc3ccccc32)c(OC)c1 13.5%
Oc1ccccc1-c1nc2cnccn2c1Nc1ccc(Cl)cc1 -26.4%
COc1ccc(-c2nn3c(-c4ccccc4)nnc3c3ccccc23)cc1 -4.73%
CCOc1ccc(C(=O)N2CCc3cc(OC)c(OC)cc3C2COc2ccc3c(C)cc(=O)oc3c2)cc1OCC (stereo not drawn) -14.5%
CCOc1ccc(CNC(=O)CCCn2c(=O)c3cccn3c3cccnc32)cc1 3.69%
CCCOc1ccc(OC(=O)c2ccc(-c3ccc(CCC)cn3)cc2)cc1 3.39%
COc1cc(NC(=O)CCNC(=O)Cn2ccc3ccccc3c2=O)cc(OC)c1OC -9.22%
COc1ccc(CCNC(=O)c2cc(Nc3ccccc3)nc3ccccc23)cc1OC -16.7%
O=C1CCc2cc(S(=O)(=O)NCc3ccccc3)cc3c2N1CC3 -16.9%
CCn1c(C(=O)Nc2ccccc2C(=O)OC)cc2sc(Cl)cc21 -10.6%
CCCCCCCCCCOc1cc2c(=O)c(C(=O)OCC)c[nH]c2cc1OCC 0.204% [at 6.01 µM]
Cc1nc2c(c(C)nn2-c2ccccc2)c(C)c1CCC(=O)Nc1ccccc1 15.3%
Cc1ccc(NC(=O)Cn2c(=O)n(Cc3ccc(F)cc3)c(=O)c3cccnc32)cc1C 12.9%
O=C(Nc1ccc(S(=O)(=O)N(Cc2ccccc2)c2ccccc2)cc1)c1ccccc1F -24.8%
O=C(CCCCn1c(=O)c2ccccc2n(Cc2ccc(F)cc2Cl)c1=O)NCCc1ccc(Cl)cc1 -23%
COC(=O)c1ccccc1NC(=O)CCCn1c(C)c2cnn(-c3ccccc3)c(=O)c2c1C -15.6%
COc1ccccc1CNC(=O)Cc1c(C)c2cc3c(C)coc3c(C)c2oc1=O -9.13%
CCOc1ccc(CCNC(=O)C2Cc3ccccc3N2C(=O)CC)cc1 (stereo not drawn) -13%
CCOC(=O)c1ccc(Nc2c(-c3ccc(OC)cc3)nc3nc[nH]n23)cc1 -14.5%
Cc1ccccc1Cn1c(=O)n(Cc2ccco2)c(=O)c2sc3ccccc3c21 -11.4%
CCC(=O)N1CCc2cc(CNC(=O)Nc3cc(OC)c(OC)c(OC)c3)ccc21 -28%
CCN(CC)C(=O)C1=C(C)Nc2nc3ccccc3n2C1c1ccccc1F (stereo not drawn) -4.39%
CCOC(=O)c1cc2c(=O)n3ccccc3nc2n(CCCOC)c1=NC(=O)c1c(-c2c(F)cccc2Cl)noc1C -21.5%
O=C(Cc1ccc(NC(=O)N2CCCCc3ccccc32)cc1)NCc1cccc(Br)c1 -14.2%
COc1ccc(Cl)cc1NC(=O)Cn1c(=O)n(-c2ccc(C)cc2)c(=O)c2ccc(C(=O)NCc3ccccc3Cl)cc21 -20%
CCCCn1c(SCc2ccccc2C)nc2ccsc2c1=O 2.14%
COc1ccc(CNC(=O)C(=O)NCC(c2ccco2)S(=O)(=O)c2cccs2)cc1 (stereo not drawn) -23.2%
Cc1nnc(SCc2cc(=O)c3cc(F)ccc3[nH]2)n1C 19%
Cc1ccc(NC(=O)c2ccc3c(O)c(S(=O)(=O)c4ccc(Cl)cc4)c(=O)[nH]c3c2)cc1 -1.17%
C=C(C)Cn1c(SCC(=O)c2ccc(Br)cc2)nc2sc3c(c2c1=O)CCCC3 -13.3%
CC1=C(C#N)C(NC(=O)c2ccccc2)(C(F)(F)F)C(=O)N1 (stereo not drawn) -17.6%
CCc1ccc2occ(CC(=O)Nc3ccc(OC)c(Cl)c3)c2c1 -16.1%
Cc1nc(SCC(=O)Nc2ccc(C)c(Cl)c2)cc(-c2ccccc2)n1 -18.1%
COc1ccc(CN(Cc2ccco2)C(=O)COc2ccccc2OC)cc1 -12.3%
CCc1ccccc1-n1cnc2cc(C(=O)NC3CCCCCC3)ccc21 -28.5%
O=C(Nc1ccccc1Cl)[C@H](CSCc1ccccc1)N1Cc2ccccc2C1=O -29.3%
O=C(c1ccc2c(c1)CCN2S(=O)(=O)c1ccccc1)N1CCN(c2ccccc2F)CC1 -9.42%
CSc1ccc(-c2nc3cccc(C)n3c2Nc2ccc3c(c2)OCO3)cc1 -17.3%
O=C(CN1C(=O)CSc2ccc(S(=O)(=O)N3CCCC3)cc21)NCc1ccccc1Cl -14.1%
Cc1ccc(OCC(=O)Nc2c(C(=O)c3ccc(Cl)cc3)oc3ccccc23)cc1C 0.107%
CCOc1ccc(C2c3c(oc4ccc(C)cc4c3=O)C(=O)N2CCCN(C)C)cc1OC (stereo not drawn) -2.88%
CO[C@H]1C=CO[C@@]2(C)Oc3c(C)c(O)c4c(O)c(c(/C=N/N5CCN(C)CC5)c(O)c4c3C2=O)NC(=O)/C(C)=C\C=C[C@H](C)[C@H](O)[C@@H](C)[C@@H](O)[C@@H](C)[C@H](OC(C)=O)[C@@H]1C -8.7%
COc1ccc(-n2nc(C(=O)Nc3ccc(C(C)=O)cc3)nc2-c2ccccc2)cc1 -16.8%
COc1ccc(-c2nnc(SCCOc3ccccc3C)o2)cc1OC 4.03%
Cc1cn(C)c(CC(=O)Nc2ccc(F)cc2Cl)c1C(=O)O -16.7%
Cc1cc(C)cc(OCCSc2nc3ccc(NC(=O)COc4ccccc4)cc3s2)c1 -30.6%
